# In all, about 33,000 sequences were measured (“E-score (-0.5 to 0.5)”: median about -0.035, highest 2% from about 0.35 on). The list shows a part of the results.
# Target: T1, Pdr3 (UniProt P33200)
# T1 sequence: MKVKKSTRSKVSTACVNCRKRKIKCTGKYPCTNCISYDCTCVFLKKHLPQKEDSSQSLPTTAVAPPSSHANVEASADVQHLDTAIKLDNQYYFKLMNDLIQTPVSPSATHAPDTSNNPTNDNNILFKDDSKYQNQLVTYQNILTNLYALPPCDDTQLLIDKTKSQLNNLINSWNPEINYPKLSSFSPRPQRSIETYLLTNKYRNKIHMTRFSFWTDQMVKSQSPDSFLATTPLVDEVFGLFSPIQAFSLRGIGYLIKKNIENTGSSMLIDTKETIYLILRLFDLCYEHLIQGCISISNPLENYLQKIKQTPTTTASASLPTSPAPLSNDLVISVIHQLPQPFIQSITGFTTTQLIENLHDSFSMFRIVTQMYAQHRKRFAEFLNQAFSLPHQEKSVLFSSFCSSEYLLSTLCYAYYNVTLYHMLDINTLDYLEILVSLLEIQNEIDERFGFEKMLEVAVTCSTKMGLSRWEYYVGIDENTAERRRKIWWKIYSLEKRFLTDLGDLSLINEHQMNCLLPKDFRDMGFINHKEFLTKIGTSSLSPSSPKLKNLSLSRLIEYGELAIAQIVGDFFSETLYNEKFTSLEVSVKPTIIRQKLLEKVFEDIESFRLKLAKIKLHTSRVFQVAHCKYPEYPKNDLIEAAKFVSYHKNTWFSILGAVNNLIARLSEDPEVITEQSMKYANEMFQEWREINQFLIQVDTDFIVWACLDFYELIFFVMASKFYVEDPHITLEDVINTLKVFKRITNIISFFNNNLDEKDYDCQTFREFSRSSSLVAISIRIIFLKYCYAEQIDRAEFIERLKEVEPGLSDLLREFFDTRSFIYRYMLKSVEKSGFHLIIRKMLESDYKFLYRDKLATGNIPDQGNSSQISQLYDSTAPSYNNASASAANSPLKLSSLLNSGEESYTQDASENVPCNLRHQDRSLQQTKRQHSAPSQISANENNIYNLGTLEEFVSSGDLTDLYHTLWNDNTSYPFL
# Experiment: PBM E-score (8-mer binding enrichment) (E-score (-0.5 to 0.5)); higher = stronger / more preferred TF binding; most listed sequences are background and not binding sites
# Conditions: protein concentration: 200 nM; construct: GST-full length
# Outline: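 GST-tagged yeast TFs (full-length or DNA-binding domain) were made by PURExpress in vitro transcription/translation and applied at about 100-200 nM to universal all-10-mer Agilent arrays. The arrays were made double-stranded by primer extension, on fresh or once-stripped slides. Bound protein was detected with fluorescent anti-GST, and scans were normalised with masliner. Each ungapped eight-base word, pooled with its reverse complement, received an E-score (modified Wilcoxon-Mann-Whitney statistic) from the Universal PBM Analysis Suite.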
row,Sequence,PBM E-score
1,CTAGACTC,-0.324
2,AAGCCTAA,-0.183
3,ATACCGTC,0.135
4,AAGTCTCC,-0.0741
5,CATGAGCA,0.0587
6,CAATTGTG,-0.131
7,CGCAGATC,-0.0483
8,CGACTACG,-0.0144
9,CTGATACA,-0.132
10,AGCCACAC,-0.0874
11,AAACTCAT,0.161
12,CGGCGCCG,0.463
13,TAAACTCA,0.0377
14,CGAGTCAA,-0.19
15,TAACATCA,-0.255
16,ACCCAGGG,-0.0849
17,GAATCCGC,0.296
18,TAGGACGA,-0.0994
19,CCGACCGC,-0.0222
20,ACGCGTCA,-0.0423
21,GTCTGACA,0.159
22,AGCTCGCC,0.0497
23,GCATCACA,-0.0216
24,GTCTTGCA,-0.066
25,AATCTACT,0.0902

row,Sequence,PBM E-score
1,GCATCGAA,-0.2
2,GCCTACAC,-0.175
3,CTGCGGGA,0.114
4,ATTCGTGG,-0.038
5,AGACCGTG,-0.107
6,ACGTGAGC,-0.0523
7,CACATCGG,-0.0207
8,GGCACCTA,0.00429
9,AGCATCTA,-0.0841
10,AGAGAATA,-0.0195
11,AAACATTG,-0.0839
12,AGTAATTC,0.153
13,AGTCGAGC,-0.215
14,TCCCTTCA,-0.283
15,ACACCCAG,-0.0474
16,AATAAGGG,-0.119
17,CTATCCAA,-0.229
18,AACATCGG,0.145
19,ATTTAAGC,0.0284
20,CGAATCCA,0.0811
21,TGTATACA,-0.0124
22,GTGCATTA,-0.0778
23,GCAGCCTA,-0.227
24,AGCTGACG,-0.142
25,GGACCAAC,0.107

row,Sequence,PBM E-score
1,CGACATGA,0.0638
2,TAGCTTCA,-0.278
3,CTACTTCC,0.144
4,TAGTGATA,-0.251
5,CGAGGTAC,-0.0877
6,AAATGGGC,0.0103
7,ATATTCTA,0.055
8,CTTCATTA,-0.0304
9,GACGTAGC,-0.228
10,ACGCTACG,-0.084
11,CTGTCCTC,-0.0393
12,GTCAGGTA,-0.0512
13,ATAGAGCA,-0.0482
14,CGTAAACA,0.0488
15,GTATGTGA,-0.0803
16,CATATGTA,-0.206
17,GTTGCTGA,-0.0444
18,CCTTTTCC,0.0495
19,ACAAACAC,0.129
20,GGTCAACA,0.0754
21,CATTTTGC,0.0786
22,CATCAACC,-0.0565
23,AACCAGCG,0.0704
24,AGGGATAC,-0.128
25,CAACACCA,-0.194

row,Sequence,PBM E-score
1,GGTGATGA,0.0492
2,GGAGATGA,0.094
3,AAACGAAC,0.0483
4,CGCTACCA,0.051
5,TACGAGCA,-0.105
6,GATTCCTA,0.0205
7,ACTAGAAA,-0.213
8,AACCCAAC,-0.0685
9,TAGTCCCA,-0.187
10,ACTTTGAC,-0.0538
11,ATGAAGCA,-0.152
12,CTCAATAC,-0.0754
13,GTTCATGA,0.122
14,AGCGCATG,-0.0684
15,CATTAGCG,-0.00416
16,AGCAGAAA,0.00936
17,ATGCTCAG,0.0157
18,AGAGATGA,-0.055
19,GCAATGAC,-0.258
20,CGGTAGTC,0.0361
21,TCCCACAA,-0.0275
22,CCATTAAG,-0.0621
23,AAAACATT,-0.114
24,AGCATCGA,-0.0594
25,AACATCTT,-0.0399

row,Sequence,PBM E-score
1,TGTGCGAA,-0.184
2,ATGCAAGA,-0.134
3,GAAGTCTA,-0.208
4,ACCAGGCG,-0.0145
5,AGGATAAT,-0.156
6,GCTTTGGA,0.0987
7,AACATCGC,0.0335
8,CAACTCCA,0.0238
9,AATTGGAT,-0.0847
10,AAACACGC,0.0967
11,CAAGTAGG,-0.219
12,GACCTCTA,-0.0949
13,GACGATCA,-0.161
14,ACGTCGCG,-0.0263
15,GTCATAAA,-0.112
16,AGAAATAT,0.0879
17,AATAACTA,-0.0565
18,CGTCGAGA,0.0361
19,CGGAGTAA,0.326
20,GACGTGGC,-0.15
21,ATTAAAAT,0.103
22,CTTATTCA,-0.156
23,TAATAAGA,-0.12
24,CGGGACTC,0.238
25,ATCCCTGG,-0.0752

row,Sequence,PBM E-score
1,CAGTCGAA,-0.192
2,AAGTTATT,0.0188
3,ACGCTAAA,-0.228
4,GGCCATCA,-0.00756
5,ACCTTCAT,0.0018
6,GATCTGAA,-0.153
7,GGCGAGAC,-0.165
8,ATTTTGTC,0.00507
9,CTGACTCA,-0.208
10,CAGTACGC,-0.104
11,CAATGTGG,-0.0954
12,ACTAGATA,0.0203
13,ATAGTTTC,0.0739
14,ATAAAGTG,-0.0125
15,CCTAGGAA,0.0351
16,GATGTCTA,-0.124
17,AATGGAAT,0.201
18,CCTTTACG,-0.00314
19,CTGAAGCC,-0.149
20,ACTGAGGC,0.0522
21,AATCTATC,0.00821
22,AACTGGAT,0.12
23,GCACGGGA,0.315
24,GACCTTTA,-0.0405
25,CTGCCCGC,0.318

row,Sequence,PBM E-score
1,CGGTTATA,-0.0544
2,GAAGCGTA,0.129
3,CCTTTCCA,-0.0113
4,GCCTCTAA,-0.202
5,CGATAACC,0.0764
6,GGTCAGAC,-0.156
7,ATCCATCA,-0.0246
8,AATACTCC,0.0403
9,CAGTGCCC,-0.155
10,CGTCGGGC,0.0413
11,GAACTAAC,0.0521
12,CTTATCCC,0.00119
13,CTTACCAA,-0.108
14,CTATACCC,0.0696
15,TGTCACAA,0.105
16,ACTAACCT,0.00892
17,CGGACGAG,0.238
18,AATGAATA,0.047
19,GTACCGCA,0.151
20,CCAACACG,-0.0826
21,GCCTGTCC,-0.058
22,GATGCTGA,-0.15
